Results reported in PubChem BioAssay AID686978 (National Center for Advancing Translational Sciences (NCATS), 2013).
In all, about 420,000 compounds went through this assay and about 64,000 (15%) were called active. Inconclusive results, whose numbers are uncertain, are shown with a selection of clear calls. Calls follow the shape of the dose curve; as a rule, active = well fitted inhibition curve with a large enough effect; inconclusive = small, poorly fitted or top-dose-only effect; inactive = flat fitted curve, though single readings scatter. Potencies of inconclusive entries are left out as doubtful fits.

Experiment: qHTS for Inhibitors of human tyrosyl-DNA phosphodiesterase 1 (TDP1): qHTS in cells in absence of CPT; also: nearly all actives have a fitted effect of over 55% in size
Details: DT40 Tdp1-/- hTDP1 cells, no CPT, ATP luminescence, 48 h; activity change, negative = growth inhibition: at 46.2 µM (top of the series)
How it was run: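 Growth kinetics read by CellTiter-Glo luminescence after ≥48 hr at 37 °C. Cells: DT40 Tdp1-/- stably carrying human TDP1, 400 per well, compound exposure in the absence of CPT (DMSO vehicle).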
% is scaled to controls: 0 for no effect and ±100 for the full control effect; potency is read from the fitted curve at half-maximal effect; tags tell the direction and shape of the fitted curve.

Row | SMILES | Potency | activity change, negative = growth inhibition
1 | COc1ccc(-n2ccnc(SCC(=O)NC3CCCC3)c2=O)cc1 | inconclusive [inhibitor, single point] | –
2 | O=[N+]([O-])c1ccc(S(=O)(=O)NCCN2CCOCC2)cc1 | – | inactive: 1.17%
3 | CCOc1ccc(S(=O)(=O)NCCC(=O)NCCCSc2ccccc2)cc1 | inconclusive [inhibitor, single point] | –
4 | Cc1nn(-c2ccccc2)c2nc(N)c(C#N)c(-c3ccc(F)cc3)c12 | active: 25.9 µM | –
5 | C=CCNC(=O)c1onc(CSc2ccc(Cl)cc2)c1C(=O)NCC=C | active: 16.4 µM | –
6 | CCS(=O)(=O)c1ccccc1C(=O)N1CCN(c2nc3ccccc3s2)CC1 | inconclusive [inhibitor, partial curve] | –
7 | C=CC[n+]1c(C)csc1Nc1ccc(C)cc1 | inconclusive [inhibitor, single point] | –
8 | CCn1c(O)c(N=Nc2ccc3ccccc3n2)c2ccccc21 | active: 23.1 µM | –
9 | COc1cccc(-c2noc(CCCC(=O)N3CCOCC3)n2)c1 | – | inactive: -2.49%
10 | Cc1ccccc1OCc1nc2ccccc2[nH]1 | active: 16.4 µM | –
11 | CCc1cc2c(SCC(=O)N(C)C3CCS(=O)(=O)C3)ncnc2s1 (stereo not drawn) | inconclusive [inhibitor, single point] | –
12 | CC(=O)Nc1ccc(-c2c(C)cc3oc(=O)cc(-c4ccccc4)c3c2C)cc1 | inconclusive [inhibitor, single point] | –
13 | CCCOc1ccc(C2C(C(=O)c3ccc(C)o3)=C(O)C(=O)N2Cc2ccco2)cc1OCC (stereo not drawn) | active: 23.1 µM | –
14 | COc1ccccc1/C=C/C(=O)NCC(=O)N=Nc1c(O)[nH]c2ccccc12 | inconclusive [inhibitor, partial curve] | –
15 | COC(=O)c1ccc(CSc2nnc(NC(=O)C3CC(=O)N(c4ccc5c(c4)OCCO5)C3)s2)cc1 (stereo not drawn) | active: 20.6 µM | –
16 | COc1cc(OC)cc(C2=Cc3ccc(OC)cc3C(CC(C)=O)N2c2ccc(C#CCCO)cc2)c1 (stereo not drawn) | active: 20.6 µM | –
17 | COc1ccc(S(=O)(=O)N2CCC(C(=O)N[C@@H](C)C(=O)NCc3ccccn3)CC2)cc1 | – | inactive: -12.9%
18 | O=C(Nc1cccc([N+](=O)[O-])c1)Nc1cnccn1 | – | inactive: 3.16%
19 | CCOC(=O)C1CCN(C(=O)Cn2ncc3c4ccccc4n(C)c3c2=O)CC1 | inconclusive [inhibitor, single point] | –

Row | SMILES | Potency | activity change, negative = growth inhibition
20 | COCCn1c(=O)c(C)nc2cnc(OCc3ccccc3)nc21 | inconclusive [inhibitor, single point] | –
21 | O=C(Nc1cccc(-c2cn3c(n2)SCC3)c1)c1ccc(Br)o1 | – | inactive: -17.9%
22 | Cc1cccc(OCC(O)CN2CCc3ccccc3C2)c1 (stereo not drawn) | inconclusive [inhibitor, partial curve] | –
23 | COc1ccc(S(=O)(=O)N2Cc3ccccc3CC2C(=O)Nc2ccc3c(c2)OCO3)cc1 (stereo not drawn) | inconclusive [inhibitor, single point] | –
24 | Cc1cccc(-n2ncc3c2CCCC3NC(=O)CCN2CCCCO2)c1C (stereo not drawn) | inconclusive [inhibitor, single point] | –
25 | COc1ccccc1CNCC(=O)Nc1ccccc1-n1cccc1 | – | inactive: -12.4%
26 | C=CCN(CC=C)CC(O)Cn1c2ccccc2c2ccccc21 (stereo not drawn) | active: 23.1 µM | –
27 | Cc1ccc(C(=O)N/C(=C/c2ccc(Cl)cc2)C(=O)NCC2CCCO2)cc1 (stereo not drawn) | inconclusive [inhibitor, single point] | –
28 | Cc1nn(C(C)C(=O)NCCN2CCCCCC2)c(=O)c2nn(-c3ccccc3)c(C)c12 (stereo not drawn) | – | inactive: 5.32%
29 | CC1CN(C(=O)Cc2ccc(-c3ccccc3)cc2)CC(C)O1 (stereo not drawn) | inconclusive [inhibitor, single point] | –
30 | COc1ccc(CNc2cc(-c3cccnc3)ncn2)c(OC)c1 | – | inactive: -27.7%
31 | CN(CCc1ccccc1)C(CCc1ccccc1)C(=O)Nc1ccc2c(c1)OCCO2 (stereo not drawn) | inconclusive [inhibitor, single point] | –
32 | COC(=O)c1cc(OC)c(OC)cc1NC(=O)c1ccc(C)o1 | active: 18.4 µM | –
33 | Cc1ccc(-n2c(SCC(=O)Nc3ccc4c(c3)OCCO4)nc3c([nH]c4ccccc43)c2=O)cc1 | inconclusive [inhibitor, single point] | –
34 | COC(=O)c1sc2ccccc2c1NC(=O)c1ccc(S(=O)(=O)N2CCCCC2C)cc1 (stereo not drawn) | inconclusive [inhibitor, single point] | –
35 | OC[C@H]1O[C@@H](c2nc(-c3ccc(CN4CCOCC4)cc3)no2)[C@H](O)[C@@H](O)[C@H]1O | – | inactive: -8.69%
36 | Cc1ccc(N(CC(=O)NC2CCCC2)C(=O)Cn2nnc(-c3ccccc3F)n2)cc1 | – | inactive: -19%
37 | COc1cccc(/C=N/NC(=O)C(=O)NCc2cccnc2)c1OC | – | inactive: 9.6%
38 | CCOC(=O)[C@]12CCC=C1N(Cc1ccccc1)C(=O)[C@H](CC(=O)NCC1CCCCC1)C2 | inconclusive [inhibitor, single point] | –
